Test results from the supplement of paper PMC12217912.
The list shows a part of the results. The full chains were built here from the parent and the listed change. Values near 0.05 are background.

B1: TEV protease; numbered along this chain (parent)
chain: MGESLFKGPRDYNPISSSICHLTNESDGHTTSLYGIGFGPFIITNKHLFRRNNGTLVVQSLHGVFKVKDTTTLQQHLVDGRDMIIIRMPKDFPPFPQKLKFREPQREERICLVTTNFQTKSMSSMVSDTSCTFPSGDGIFWKHWIQTKDGQCGSPLVSTRDGFIVGIHSASNFTNTNNYFTSVPKNFMELLTNQEAQQWVSGWRLNADSVLWGGHKVFMVKPEEPFQPVKEATQL

Variants of: B1
Experiment: raw area under fraction-flipped curve 0-4 h after induction (AUC4h, not background-subtracted), DNA-recorder readout of cleavage of the substrate (dimensionless); higher = more cleavage of the substrate by the protease variant
Conditions: temperature: 34 °C; time window: 0-4 h after rhamnose induction
Description: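 In vivo DNA recorder in E. coli TOP10(DE3) ΔrhaA at 34 °C. Each TEVp single-site mutant (parent TEVp 0) is paired with a single-site variant of the 7-mer TEVs (canonical ENLYFQ|S). The substrate sits between flexible linkers in a Bxb1-sfGFP-TEVs-SsrA fusion, so cleavage stabilises Bxb1 and speeds flipping of a recombination array, read by NGS. The value is the raw area under the fraction-flipped curve over 0-4 h after rhamnose induction (AUC4h), with ≥20 reads per time point. It is not background-subtracted; inactive controls average about 0.047.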
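Note: Bxb1 expression induced with 0.2% (w/v) L-rhamnose at OD600 near 0.5, cultures sampled hourly, flipped fraction per protease–substrate barcode pair counted by paired-end Illumina sequencing.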

Row | Variant | area with substrate ENLAFQS | area with substrate ENLCFQS | area with substrate ENLEFQS | area with substrate ENLFFQS | area with substrate ENLHFQS | area with substrate ENLIFQS | area with substrate ENLKFQS | area with substrate ENLLFQS | area with substrate ENLNFQS | area with substrate ENLPFQS
1 | MGESLFKGPRDYNPISSSICHLTNESDGHTTSLYGIGFGPFIITNKHLFRRNNGTLVVQSLHGVFKVKDTTTLQQHLVDGRDMIIIRMPKDFPPFPQKLKFREPQREERICLVTTNFQTKSMSCMVSDTSCTFPSGDGIFWKHWIQTKDGQCGSPLVSTRDGFIVGIHSASNFTNTNNYFTSVPKNFMELLTNQEAQQWVSGWRLNADSVLWGGHKVFMVKPEEPFQPVKEATQL [S124C] | 0.0664 | 0.0754 | 0.0731 | 0.0809 | 0.0713 | 0.0726 | 0.0691 | 0.0687 | 0.0351 | 0.0473
2 | MGESHFKGPRDYNPISSSICHLTNESDGHTTSLYGIGFGPFIITNKHLFRRNNGTLVVQSLHGVFKVKDTTTLQQHLVDGRDMIIIRMPKDFPPFPQKLKFREPQREERICLVTTNFQTKSMSSMVSDTSCTFPSGDGIFWKHWIQTKDGQCGSPLVSTRDGFIVGIHSASNFTNTNNYFTSVPKNFMELLTNQEAQQWVSGWRLNADSVLWGGHKVFMVKPEEPFQPVKEATQL [L5H] | 0.0757 | 0.0918 |  | 0.117 |  |  | 0.0721 |  | 0.0662 | 
3 | MGESTFKGPRDYNPISSSICHLTNESDGHTTSLYGIGFGPFIITNKHLFRRNNGTLVVQSLHGVFKVKDTTTLQQHLVDGRDMIIIRMPKDFPPFPQKLKFREPQREERICLVTTNFQTKSMSSMVSDTSCTFPSGDGIFWKHWIQTKDGQCGSPLVSTRDGFIVGIHSASNFTNTNNYFTSVPKNFMELLTNQEAQQWVSGWRLNADSVLWGGHKVFMVKPEEPFQPVKEATQL [L5T] | 0.0504 |  |  | 0.115 | 0.1 |  | 0.0975 |  | 0.0576 | 0.0516
4 | MGESLFKGPRDYNPISSSICHLTNESDGHTTSLYGIGFGPFIITNKHLFRRNNGTLVVQSLHGVFKVKDTTTLQQHLVDGRDMIIIRMPKDFPPFPQKLKFREPQREERICLVTTNFQTKSMSSMVSDTSCTFPSGDGIFWKHWIQTKDGQCGSPLVSTRDGFIVGIHSASNFTNTNNYFTEVPKNFMELLTNQEAQQWVSGWRLNADSVLWGGHKVFMVKPEEPFQPVKEATQL [S182E] | 0.0499 |  | 0.0626 | 0.0854 |  |  | 0.0541 | 0.0705 | 0.0571 | 
5 | MGESLFKGPRDYNPISSSICHLTNESDGHTTSLYGIGFGPFIITGKHLFRRNNGTLVVQSLHGVFKVKDTTTLQQHLVDGRDMIIIRMPKDFPPFPQKLKFREPQREERICLVTTNFQTKSMSSMVSDTSCTFPSGDGIFWKHWIQTKDGQCGSPLVSTRDGFIVGIHSASNFTNTNNYFTSVPKNFMELLTNQEAQQWVSGWRLNADSVLWGGHKVFMVKPEEPFQPVKEATQL [N45G] | 0.0718 |  | 0.0716 |  | 0.0575 | 0.0521 | 0.0798 | 0.0532 | 0.0663 | 0.0601
6 | MGESLFKGPRDYNPISSSICHLTNESDGHTTSLYGIGFGPFIITNKHLFRRNNGTLVVQSLHGVFKVKDTTTLQQHLVDGRDMIIIRMPKDFPPFPQKLKFREPQREERICLVTTNFQTKSMSSMVSDTSCTFPSGDGIFWKHWIQTKDGQCGSPLVSTRDGFIVGIHSASNFTNTNNYFTSVPKNFMELLTNQEAQQWVSGWPLNADSVLWGGHKVFMVKPEEPFQPVKEATQL [R204P] | 0.0451 | 0.0639 |  | 0.127 | 0.0683 |  |  |  | 0.0722 | 0.0548
7 | MGESLFKGPRDYNPISSSICHLTNESDGHTTSLYGIGFGPFIITNKHLFRRNNGTLVVQSLHGVFKVKDTTTLQQHLVDGRDMIIIRMPKDFPPFPQKLKFREPQREERICLVTTNFQTKSMSSMVSDTSCTFPSGDGIFWKHWIQTKDGQCGSPLVSTRDGFIVGIHSASNFTNTNNYFTSVPKNFMELLTNQEAQQWVSGWRLNADSVLWGGHKEFMVKPEEPFQPVKEATQL [V217E] | 0.0762 |  |  |  |  |  | 0.0616 |  |  | 0.0791
8 | MGESLFKGPRDYNPISSSICHLTNESDGHTTSLYGIGFGPFIITNKHLFRRNNGTLVVQSLHGVFKVKDTTTLQQHLVDGRDMIIIRMPKDFPPFPNKLKFREPQREERICLVTTNFQTKSMSSMVSDTSCTFPSGDGIFWKHWIQTKDGQCGSPLVSTRDGFIVGIHSASNFTNTNNYFTSVPKNFMELLTNQEAQQWVSGWRLNADSVLWGGHKVFMVKPEEPFQPVKEATQL [Q97N] | 0.0667 |  |  |  |  |  | 0.0976 |  | 0.0686 | 
9 | MGESLFKGPRDYNPISSSICHLTNESDGHTTSLYGIGFGPFIITNKHLFRRNNGTLVVQSLHGVFKVKDTTTLQQHLVDGRDMIIIRMPKDFPPFPCKLKFREPQREERICLVTTNFQTKSMSSMVSDTSCTFPSGDGIFWKHWIQTKDGQCGSPLVSTRDGFIVGIHSASNFTNTNNYFTSVPKNFMELLTNQEAQQWVSGWRLNADSVLWGGHKVFMVKPEEPFQPVKEATQL [Q97C] | 0.103 |  |  |  |  |  | 0.0787 |  |  | 
10 | MGESLFKGPRDYNPISSSICHLTNESDGHTTSLYGIGFGPFIITNKHLFRRNNGTLVVQSLHGVFKVKDTTTLQQHLVDGRDMIIIRMPKDFPPFPLKLKFREPQREERICLVTTNFQTKSMSSMVSDTSCTFPSGDGIFWKHWIQTKDGQCGSPLVSTRDGFIVGIHSASNFTNTNNYFTSVPKNFMELLTNQEAQQWVSGWRLNADSVLWGGHKVFMVKPEEPFQPVKEATQL [Q97L] | 0.0626 |  |  | 0.0715 |  |  | 0.071 | 0.1 |  | 0.0722
11 | MGESLFKGPRDYNPISSSICHLTNESDGHTTSLYGIGFGPFIITNKHLFRRNNGTLVVQSLHGVFKVKDTTTLQQHLVDGRDMIIIRMPKDFPPFPQKLKFREPQREERICLVTTNFQTKSMSSMVSDTSCTFPSGDGIFWKHWIQTKDGQCGSPLVSTRDGFIVGIHSASNFTNTMNYFTSVPKNFMELLTNQEAQQWVSGWRLNADSVLWGGHKVFMVKPEEPFQPVKEATQL [N177M] | 0.0549 |  |  | 0.122 |  |  |  | 0.0725 |  | 

Same assay, conditions: temperature: 34 °C; time window: 0-4 h after rhamnose induction

Row | Variant | area with substrate ENLQFQS | area with substrate ENLRFQS | area with substrate ENLSFQS | area with substrate ENLDFQS | area with substrate ENLGFQS | area with substrate ENLVFQS | area with substrate ENLWFQS | area with substrate ENLTFQS | area with substrate ENLMFQS
12 | MGESLFKGPRDYNPISSSICHLTNESDGHTTSLYGIGFGPFIITNKHLFRRNNGTLVVQSLHGVFKVKDTTTLQQHLVDGRDMIIIRMPKDFPPFPQKLKFREPQREERICLVTTNFQTKSMSCMVSDTSCTFPSGDGIFWKHWIQTKDGQCGSPLVSTRDGFIVGIHSASNFTNTNNYFTSVPKNFMELLTNQEAQQWVSGWRLNADSVLWGGHKVFMVKPEEPFQPVKEATQL [S124C] | 0.0587 | 0.0726 | 0.0723 |  |  |  |  |  | 
13 | MGESHFKGPRDYNPISSSICHLTNESDGHTTSLYGIGFGPFIITNKHLFRRNNGTLVVQSLHGVFKVKDTTTLQQHLVDGRDMIIIRMPKDFPPFPQKLKFREPQREERICLVTTNFQTKSMSSMVSDTSCTFPSGDGIFWKHWIQTKDGQCGSPLVSTRDGFIVGIHSASNFTNTNNYFTSVPKNFMELLTNQEAQQWVSGWRLNADSVLWGGHKVFMVKPEEPFQPVKEATQL [L5H] |  |  |  | 0.0517 |  |  |  |  | 
14 | MGESTFKGPRDYNPISSSICHLTNESDGHTTSLYGIGFGPFIITNKHLFRRNNGTLVVQSLHGVFKVKDTTTLQQHLVDGRDMIIIRMPKDFPPFPQKLKFREPQREERICLVTTNFQTKSMSSMVSDTSCTFPSGDGIFWKHWIQTKDGQCGSPLVSTRDGFIVGIHSASNFTNTNNYFTSVPKNFMELLTNQEAQQWVSGWRLNADSVLWGGHKVFMVKPEEPFQPVKEATQL [L5T] |  | 0.0785 | 0.0808 | 0.0455 | 0.0381 | 0.0439 | 0.0563 |  | 
15 | MGESLFKGPRDYNPISSSICHLTNESDGHTTSLYGIGFGPFIITNKHLFRRNNGTLVVQSLHGVFKVKDTTTLQQHLVDGRDMIIIRMPKDFPPFPQKLKFREPQREERICLVTTNFQTKSMSSMVSDTSCTFPSGDGIFWKHWIQTKDGQCGSPLVSTRDGFIVGIHSASNFTNTNNYFTEVPKNFMELLTNQEAQQWVSGWRLNADSVLWGGHKVFMVKPEEPFQPVKEATQL [S182E] | 0.0821 |  | 0.0581 | 0.0666 |  | 0.0494 | 0.0571 | 0.0621 | 
16 | MGESLFKGPRDYNPISSSICHLTNESDGHTTSLYGIGFGPFIITGKHLFRRNNGTLVVQSLHGVFKVKDTTTLQQHLVDGRDMIIIRMPKDFPPFPQKLKFREPQREERICLVTTNFQTKSMSSMVSDTSCTFPSGDGIFWKHWIQTKDGQCGSPLVSTRDGFIVGIHSASNFTNTNNYFTSVPKNFMELLTNQEAQQWVSGWRLNADSVLWGGHKVFMVKPEEPFQPVKEATQL [N45G] |  | 0.0624 | 0.0618 | 0.0615 |  |  | 0.051 | 0.0672 | 0.0815
17 | MGESLFKGPRDYNPISSSICHLTNESDGHTTSLYGIGFGPFIITNKHLFRRNNGTLVVQSLHGVFKVKDTTTLQQHLVDGRDMIIIRMPKDFPPFPQKLKFREPQREERICLVTTNFQTKSMSSMVSDTSCTFPSGDGIFWKHWIQTKDGQCGSPLVSTRDGFIVGIHSASNFTNTNNYFTSVPKNFMELLTNQEAQQWVSGWPLNADSVLWGGHKVFMVKPEEPFQPVKEATQL [R204P] |  | 0.0491 |  |  |  |  |  | 0.0722 | 
18 | MGESLFKGPRDYNPISSSICHLTNESDGHTTSLYGIGFGPFIITNKHLFRRNNGTLVVQSLHGVFKVKDTTTLQQHLVDGRDMIIIRMPKDFPPFPQKLKFREPQREERICLVTTNFQTKSMSSMVSDTSCTFPSGDGIFWKHWIQTKDGQCGSPLVSTRDGFIVGIHSASNFTNTNNYFTSVPKNFMELLTNQEAQQWVSGWRLNADSVLWGGHKEFMVKPEEPFQPVKEATQL [V217E] | 0.0722 |  |  |  |  |  |  |  | 
19 | MGESLFKGPRDYNPISSSICHLTNESDGHTTSLYGIGFGPFIITNKHLFRRNNGTLVVQSLHGVFKVKDTTTLQQHLVDGRDMIIIRMPKDFPPFPQKLKFREPQREERICLVTTNFQTKSMSSMVSDTSCTFPSGDGIFWKHWIQTKDGQCGSPLVSTRDGFIVGIHSASNFTNTMNYFTSVPKNFMELLTNQEAQQWVSGWRLNADSVLWGGHKVFMVKPEEPFQPVKEATQL [N177M] |  |  |  | 0.0586 |  |  | 0.0833 | 0.076 | 
